We go through two proteins from article PMC8102337 (Nature chemistry, 2021).

This data set concerns the molecule itself. Kind of data set: SEC-MALS. For orientation: In gel filtration, larger molecules generally elute earlier.

B1: HSP27, unmodified, semisynthetic (C137A) (natural protein)
chain: not shown
As for B1, the stoichiometry N (usually the number of molecules, sites or subunits per partner or assembly) is around 28 monomers.

B2: HSP27(gT184), semisynthetic HSP27 with O-GlcNAc at Thr184 (C137A) (natural protein)
chain: not shown
modifications: O-GlcNAc at Thr184
On to B2, for which the “stoichiometry N” value is around 47 monomers.
